Data from publication PMC3843955 (Antiviral research, 2013).

What was measured:
[1] = tested on: HCMV (virus RC2626, luciferase variant of strain Towne); experiment: microbe, parasite or virus in culture; details: Human betaherpesvirus 5, MRC5, 120 h, read-out: Yield inhibition MRC-5 EC50
[2] = tested on: HCMV (virus RC2626, luciferase variant of strain Towne); details: read-out: Yield inhibition MRC-5 EC50, Luciferase-based HCMV yield inhibition assay 5 d after infection, MOI 0.03, ± standard deviation

SMILES	EC50 [1]	EC50 [2]
Nc1nc2c(ncn2COCCO)c(=O)[nH]1 [ACV, Acyclovir]	24 ± 3.1 µM	
O=C(NO)c1ccc(O)c(O)c1 [DX, didox]		103 ± 19 µM
Nc1nc(O)c2ncn(COC(CO)CO)c2n1 [GCV, Ganciclovir]	0.6 ± 0.06 µM	
NC(=O)NO [HU, hydroxyurea]		221 ± 52 µM
N/C(=N\O)c1cc(O)c(O)c(O)c1 [TX, trimidox]		36 ± 1.7 µM

Like-named read-outs stand apart in the source and are kept apart here.
